B1: UGACGCG (DNA:RNA)
RNA: GGGAGACCGGAAUUCAGAUUGUCCUGACGCGUUAAAUCCCGUCGUAGCCACCA
DNA 1: CAATCTGAATTCCGGTCTCCC
DNA 2: TGGTGGCTACGACGGGATT
B2: GCCGCCU (DNA:RNA)
RNA: B1 RNA with U25G, G26C, A27C, C28G, G29C, G31U
DNA 1: CAATCTGAATTCCGGTCTCCC
DNA 2: TGGTGGCTACGACGGGATT
B3: CUAAUCG (DNA:RNA)
RNA: B1 RNA with U25C, G26U, C28A, G29U
DNA 1: CAATCTGAATTCCGGTCTCCC
DNA 2: TGGTGGCTACGACGGGATT
B4: UGGUCAU (DNA:RNA)
RNA: B1 RNA with A27G, C28U, G29C, C30A, G31U
DNA 1: CAATCTGAATTCCGGTCTCCC
DNA 2: TGGTGGCTACGACGGGATT
B5: UAAAAUU (DNA:RNA)
RNA: B1 RNA with G26A, C28A, G29A, C30U, G31U
DNA 1: CAATCTGAATTCCGGTCTCCC
DNA 2: TGGTGGCTACGACGGGATT
B6: CCCAUAG (DNA:RNA)
RNA: B1 RNA with U25C, G26C, A27C, C28A, G29U, C30A
DNA 1: CAATCTGAATTCCGGTCTCCC
DNA 2: TGGTGGCTACGACGGGATT
B7: GCUCCGC (DNA:RNA)
RNA: B1 RNA with U25G, G26C, A27U, G29C, C30G, G31C
DNA 1: CAATCTGAATTCCGGTCTCCC
DNA 2: TGGTGGCTACGACGGGATT
B8: GCAUAAA (DNA:RNA)
RNA: B1 RNA with U25G, G26C, C28U, G29A, C30A, G31A
DNA 1: CAATCTGAATTCCGGTCTCCC
DNA 2: TGGTGGCTACGACGGGATT
B9: GCCCCGC (DNA:RNA)
RNA: B1 RNA with U25G, G26C, A27C, G29C, C30G, G31C
DNA 1: CAATCTGAATTCCGGTCTCCC
DNA 2: TGGTGGCTACGACGGGATT
B10: GAGCCCA (DNA:RNA)
RNA: B1 RNA with U25G, G26A, A27G, G29C, G31A
DNA 1: CAATCTGAATTCCGGTCTCCC
DNA 2: TGGTGGCTACGACGGGATT
B11: UUGUGAG (DNA:RNA)
RNA: B1 RNA with G26U, A27G, C28U, C30A
DNA 1: CAATCTGAATTCCGGTCTCCC
DNA 2: TGGTGGCTACGACGGGATT
B12: UGGGGGU (DNA:RNA)
RNA: B1 RNA with A27G, C28G, C30G, G31U
DNA 1: CAATCTGAATTCCGGTCTCCC
DNA 2: TGGTGGCTACGACGGGATT
B13: AGUUGAU (DNA:RNA)
RNA: B1 RNA with U25A, A27U, C28U, C30A, G31U
DNA 1: CAATCTGAATTCCGGTCTCCC
DNA 2: TGGTGGCTACGACGGGATT
B14: CCGUACA (DNA:RNA)
RNA: B1 RNA with U25C, G26C, A27G, C28U, G29A, G31A
DNA 1: CAATCTGAATTCCGGTCTCCC
DNA 2: TGGTGGCTACGACGGGATT
B15: UAUUGUG (DNA:RNA)
RNA: B1 RNA with G26A, A27U, C28U, C30U
DNA 1: CAATCTGAATTCCGGTCTCCC
DNA 2: TGGTGGCTACGACGGGATT
B16: GGAUUAU (DNA:RNA)
RNA: B1 RNA with U25G, C28U, G29U, C30A, G31U
DNA 1: CAATCTGAATTCCGGTCTCCC
DNA 2: TGGTGGCTACGACGGGATT
B17: CGGUCUU (DNA:RNA)
RNA: B1 RNA with U25C, A27G, C28U, G29C, C30U, G31U
DNA 1: CAATCTGAATTCCGGTCTCCC
DNA 2: TGGTGGCTACGACGGGATT
B18: ACCCACU (DNA:RNA)
RNA: B1 RNA with U25A, G26C, A27C, G29A, G31U
DNA 1: CAATCTGAATTCCGGTCTCCC
DNA 2: TGGTGGCTACGACGGGATT
B19: UGACAUA (DNA:RNA)
RNA: B1 RNA with G29A, C30U, G31A
DNA 1: CAATCTGAATTCCGGTCTCCC
DNA 2: TGGTGGCTACGACGGGATT
B20: AGAUGUA (DNA:RNA)
RNA: B1 RNA with U25A, C28U, C30U, G31A
DNA 1: CAATCTGAATTCCGGTCTCCC
DNA 2: TGGTGGCTACGACGGGATT
B21: UGCCUCA (DNA:RNA)
RNA: B1 RNA with A27C, G29U, G31A
DNA 1: CAATCTGAATTCCGGTCTCCC
DNA 2: TGGTGGCTACGACGGGATT
B22: UCAACGC (DNA:RNA)
RNA: B1 RNA with G26C, C28A, G29C, C30G, G31C
DNA 1: CAATCTGAATTCCGGTCTCCC
DNA 2: TGGTGGCTACGACGGGATT
B23: UCCAGCC (DNA:RNA)
RNA: B1 RNA with G26C, A27C, C28A, G31C
DNA 1: CAATCTGAATTCCGGTCTCCC
DNA 2: TGGTGGCTACGACGGGATT
B24: CGAGUCU (DNA:RNA)
RNA: B1 RNA with U25C, C28G, G29U, G31U
DNA 1: CAATCTGAATTCCGGTCTCCC
DNA 2: TGGTGGCTACGACGGGATT
B25: GGGUGAA (DNA:RNA)
RNA: B1 RNA with U25G, A27G, C28U, C30A, G31A
DNA 1: CAATCTGAATTCCGGTCTCCC
DNA 2: TGGTGGCTACGACGGGATT
B26: GACCAUC (DNA:RNA)
RNA: B1 RNA with U25G, G26A, A27C, G29A, C30U, G31C
DNA 1: CAATCTGAATTCCGGTCTCCC
DNA 2: TGGTGGCTACGACGGGATT
B27: UGAAUCA (DNA:RNA)
RNA: B1 RNA with C28A, G29U, G31A
DNA 1: CAATCTGAATTCCGGTCTCCC
DNA 2: TGGTGGCTACGACGGGATT
B28: UAACUGU (DNA:RNA)
RNA: B1 RNA with G26A, G29U, C30G, G31U
DNA 1: CAATCTGAATTCCGGTCTCCC
DNA 2: TGGTGGCTACGACGGGATT
B29: ACAGAAA (DNA:RNA)
RNA: B1 RNA with U25A, G26C, C28G, G29A, C30A, G31A
DNA 1: CAATCTGAATTCCGGTCTCCC
DNA 2: TGGTGGCTACGACGGGATT
B30: GCAGUCG (DNA:RNA)
RNA: B1 RNA with U25G, G26C, C28G, G29U
DNA 1: CAATCTGAATTCCGGTCTCCC
DNA 2: TGGTGGCTACGACGGGATT
B31: UGACCCU (DNA:RNA)
RNA: B1 RNA with G29C, G31U
DNA 1: CAATCTGAATTCCGGTCTCCC
DNA 2: TGGTGGCTACGACGGGATT

Positions count from the first letter of the chain named. The list shows a part of the results.

The test deals with T1, RBFOX1 RRM RbFoxmut (Fox-RRM*) (Homo sapiens, UniProt Q9NWB1 109-208, R118D;E147R;N151S;E152T).
T1 sequence: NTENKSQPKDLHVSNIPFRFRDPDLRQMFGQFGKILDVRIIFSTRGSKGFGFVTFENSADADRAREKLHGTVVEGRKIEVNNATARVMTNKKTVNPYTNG
As to the kind of experiment: EMSA; HiTS-Eq, 1 nM pool, 10 min; buffer printed only for the single-RNA assays: 10 mM Tris pH 7.5, 150 mM NaCl, 3.4 mM EDTA, 0.001% NP-40, 30 C. Particulars: tags: His6 N-terminal (pET28a); label: 5' 32P. Summed up: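 Purified RbFox RRM, wild type or mutant, was incubated for 10 min in 50 µL with 1 nM of a 5′-radiolabelled RNA pool carrying 7 randomized nucleotides, whose flanks were annealed to DNA oligonucleotides, over a series of increasing protein concentrations. Unbound RNA was resolved on 8% native PAGE, cut out, reverse-transcribed, barcoded by PCR and sequenced on an Illumina HiSeq 2500. Relative association constants were derived from changes in read counts for each RNA species versus the control reaction and normalised to the cognate motif.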
A general note: In EMSA bound probe runs differently from free probe, usually more slowly.
Consider B1, for which the binding signal was 0.131 KA relative to UGCAUGU.

As for B2, the binding signal is 0.076 KA relative to UGCAUGU. To B3 belongs 0.0487 KA relative to UGCAUGU; to B4, 0.0965 KA relative to UGCAUGU; to B5, 0.065 KA relative to UGCAUGU. To B6 belongs 0.141 KA relative to UGCAUGU; to B7, 0.0718 KA relative to UGCAUGU. On to B8, for which the binding signal is 0.144 KA relative to UGCAUGU.

For the molecule B9, the binding signal was 0.081 KA relative to UGCAUGU.

Turning to B10, the binding signal was 0.0512 KA relative to UGCAUGU. To B11 belongs 0.139 KA relative to UGCAUGU. B12: the binding signal is 0.12 KA relative to UGCAUGU.

With B13, the binding signal is 0.0988 KA relative to UGCAUGU.

B14: the binding signal is 0.0799 KA relative to UGCAUGU.

In the case of B15, the binding signal was 0.142 KA relative to UGCAUGU. As for B16, the figure is 0.0977 KA relative to UGCAUGU; as for B17, 0.0689 KA relative to UGCAUGU; as for B18, 0.1 KA relative to UGCAUGU. As for B19, the figure is 0.123 KA relative to UGCAUGU; as for B20, 0.212 KA relative to UGCAUGU; as for B21, 0.118 KA relative to UGCAUGU. To B22 belongs 0.0748 KA relative to UGCAUGU; to B23, 0.0757 KA relative to UGCAUGU; to B24, 0.0646 KA relative to UGCAUGU. For the molecule B25, the binding signal is 0.115 KA relative to UGCAUGU. To B26 belongs 0.0446 KA relative to UGCAUGU; to B27, 0.228 KA relative to UGCAUGU. To B28 belongs 0.0701 KA relative to UGCAUGU.

Turning to B29, the binding signal was 0.097 KA relative to UGCAUGU. For the molecule B30, the binding signal is 0.0875 KA relative to UGCAUGU. To B31 belongs 0.0476 KA relative to UGCAUGU.

(Values after PMC9911399, “Two distinct binding modes provide the RNA-binding protein RbFox with extraordinary sequence specificity”.)
